Measurements from PubChem BioAssay AID1460 (National Center for Advancing Translational Sciences (NCATS), 2008).
Screen size: about 270,000 compounds; about 5,800 (2.1%) were called active. Inconclusive results, whose numbers are uncertain, are shown with a selection of clear calls. Calls follow the shape of the dose curve; as a rule, active = well fitted inhibition curve with a large enough effect; inconclusive = small, poorly fitted or top-dose-only effect; inactive = flat fitted curve, though single readings scatter. Where the call is inconclusive, the potency comes from a doubtful curve fit.

target: Microtubule-associated protein tau (Homo sapiens) (UniProt P10636); test: qHTS for Inhibitors of Tau Fibril Formation, Thioflavin T Binding; settings: recombinant tau K18 P301L (four-repeat tau fragment), heparin-induced fibrillization, ThT fluorescence; series mostly up to 57.4 µM; also: nearly all actives have a fitted effect of over 55% in size
Sequence of UniProt P10636 (P10636 whole entry, looked up, the tested form may be a part): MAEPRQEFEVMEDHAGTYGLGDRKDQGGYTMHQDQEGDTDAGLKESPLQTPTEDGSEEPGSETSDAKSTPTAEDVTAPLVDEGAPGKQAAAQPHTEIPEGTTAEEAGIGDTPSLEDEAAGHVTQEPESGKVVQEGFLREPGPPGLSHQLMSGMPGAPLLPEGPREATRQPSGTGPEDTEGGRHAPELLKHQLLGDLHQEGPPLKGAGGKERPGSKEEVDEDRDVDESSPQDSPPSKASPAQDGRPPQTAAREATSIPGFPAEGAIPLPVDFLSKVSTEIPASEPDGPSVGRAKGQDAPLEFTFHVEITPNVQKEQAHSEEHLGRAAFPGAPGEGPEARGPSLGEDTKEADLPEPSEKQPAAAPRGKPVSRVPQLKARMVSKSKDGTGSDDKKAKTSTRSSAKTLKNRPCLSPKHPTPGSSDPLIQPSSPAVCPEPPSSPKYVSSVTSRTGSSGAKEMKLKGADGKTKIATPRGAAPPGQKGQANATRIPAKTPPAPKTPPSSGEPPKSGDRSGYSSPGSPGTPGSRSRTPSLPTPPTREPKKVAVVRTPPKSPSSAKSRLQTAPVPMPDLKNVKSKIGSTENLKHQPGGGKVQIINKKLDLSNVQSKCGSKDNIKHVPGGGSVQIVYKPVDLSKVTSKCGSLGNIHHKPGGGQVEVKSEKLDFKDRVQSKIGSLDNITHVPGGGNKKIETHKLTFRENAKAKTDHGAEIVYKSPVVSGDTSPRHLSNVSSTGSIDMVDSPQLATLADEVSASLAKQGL
In short: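 Tau K18 P301L fragment (15 uM unlabeled plus 0.24 uM Alexa 594-labeled) in 100 mM sodium acetate pH 7 with compound, fibrillization induced by 20 uM heparin for 6 hr at 37 C. Thioflavin T (30 uM) added, fluorescence read after 1 hr (ex 450, em 510 nm).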
% is scaled to controls: 0 for no effect and ±100 for the full control effect; potency is read from the fitted curve at half-maximal effect; tags tell the direction and shape of the fitted curve.

| Compound | Potency | activity, negative = inhibition |
| --- | --- | --- |
| Cc1cc(C)c2oc(-c3ccc(NC(=O)c4cc(Br)ccc4Cl)cc3)nc2c1 | inconclusive: 0.398 µM [inhibitor, full curve, poor fit] | – |
| Cc1csc(NC(=O)CSc2ccc(-c3ccc(F)cc3)nn2)n1 | inconclusive: 14.1 µM [inhibitor, partial curve] | – |
| Cc1ccc2c(=O)cc(C(=O)Nc3ccc(S(=O)(=O)N4CCCCC4)cc3)oc2c1C | inconclusive: 28.2 µM [inhibitor, single point] | – |
| Cc1cccc(N2CCN(c3ncnc4onc(-c5ccc(F)cc5)c34)CC2C)c1 (stereo unspecified) | inactive | – |
| CCOc1ccc2nc(Cl)c(C3CC(c4ccc(C)cc4)=NN3C(=O)CCCC(=O)O)cc2c1 (stereo unspecified) | inconclusive: 44.7 µM [inhibitor, single point] | – |
| CNc1oc(C)nc1S(=O)(=O)c1ccccc1 | inconclusive: 28.2 µM [inhibitor, partial curve] | – |
| Cc1ccc(S(=O)(=O)Oc2ccccc2/C=C2\SC(=O)NC2=O)cc1 | inactive | – |
| CN(C)CCN(C)Cc1ccccc1Sc1cccc2ccccc12 | inconclusive: 39.8 µM [inhibitor, single point] | – |
| CCc1ccc(NC(=O)CSCCO)cc1 | inactive | – |
| CCCC(C(=O)NC1CCCC1)N(C(=O)Cn1nnc(-c2ccc(C)o2)n1)C1CCCC1 (stereo unspecified) | inactive | – |
| COc1ccccc1Cc1nc2ccccc2nc1SCC(=O)NCc1ccc(F)cc1 | inactive | – |
| O=C(CC(c1cccs1)N1Cc2ccccc2C1=O)Nc1ccc(Cl)cc1 (stereo unspecified) | inconclusive: 17.8 µM [activator, partial curve] | – |
| CC(=O)NC1=C(NC2CCS(=O)(=O)C2)C(=O)c2ccccc2C1=O (stereo unspecified) | inactive | – |
| O=C(Nc1ccc(N2CCCCC2)cc1)c1ccc(F)cc1F | inconclusive: 8.91 µM [inhibitor, partial curve, poor fit] | – |
| Cc1noc(/C=C/N(C)C)c1S(=O)(=O)N1CCCC(C(=O)NCc2ccc(Cl)cc2)C1 (stereo unspecified) | inconclusive: 31.6 µM [inhibitor, partial curve] | – |
| CSc1nc2sc3c(c2c(=O)n1-c1ccc(C)c(Cl)c1)CCN(C(C)=O)C3 | inconclusive: 1 µM [inhibitor, full curve] | – |
| Cc1ccn2cc(-c3cc4ccccc4oc3=O)nc2c1 | inconclusive: 0.708 µM [inhibitor, partial curve] | – |
| Cc1nn(C)c(C)c1/C=N/NC(=O)CCn1cc([N+](=O)[O-])cn1 | inactive | – |
| COc1ccccc1N1CCN(C(=O)CCc2c(C)nn(-c3ccc(N4CCCC4)nn3)c2C)CC1 | inactive | – |
| CC1CCCCN1c1csc2ccc(F)cc2c1=O (stereo unspecified) | inconclusive: 20 µM [inhibitor, single point] | – |
| Cc1c(/C=N\NC(=O)C2COc3ccc(C(C)(C)C)cc3O2)c2ccccc2n1C (stereo unspecified) | inconclusive: 2.82 µM [inhibitor, full curve] | – |
| CC(C)CN1CCc2nc(-c3ccccc3)c3c(c2CC1)COC(C)C3 (stereo unspecified) | – | inactive: -4.17% [at 11.5 µM] |
| COc1ccc(-n2c(CN3CCN(c4ccccn4)CC3)nc3ccc([N+](=O)[O-])cc3c2=O)c(OC)c1 | inconclusive: 20 µM [inhibitor, single point] | – |
| COc1ccc(/C=C/C(=O)Nc2cccc(N3CCOCC3)c2)cc1OC | inconclusive: 11.2 µM [inhibitor, partial curve] | – |

| Compound | Potency | activity, negative = inhibition |
| --- | --- | --- |
| CCOC(=O)c1cnn(-c2ccc(OC)cc2)c1C1CCN(C(=O)OC(C)(C)C)CC1 | inactive | – |
| COC(=O)c1ccc(NC(=O)CCc2c(C)nn(-c3ccc(N4CCCC4)nn3)c2C)cc1 | inconclusive: 10 µM [inhibitor, partial curve] | – |
| CCN1/C(=C/c2ccc3cc(C)ccc3[n+]2CC)Sc2cc(C)c(C)cc21 | active: 7.08 µM | – |
| Cc1ccc(N/N=C(\C#N)C(=N)N2CCOCC2)cc1 | inconclusive: 35.5 µM [inhibitor, single point] | – |
| CCCCN(C(=O)c1cccc2c(=O)c(C)c(-c3ccccc3)oc12)c1ccccc1 | inconclusive: 50.1 µM [inhibitor, single point] | – |
| COc1ccc(-n2c(CN3CCC(C(N)=O)CC3)nc3ccc([N+](=O)[O-])cc3c2=O)c(OC)c1 | inconclusive: 12.6 µM [inhibitor, partial curve] | – |
| COc1cc(-n2c(C)nc3cc(C(=O)N4CCOCC4)ccc32)cc(OC)c1OC | inactive | – |
| CC(C)(C)c1ccc(-c2nnc(SCCN3C(=O)c4ccccc4C3=O)o2)cc1 | inconclusive: 17.8 µM [inhibitor, partial curve] | – |
| CN(C)c1ccc(Nc2nc(N)c([N+](=O)[O-])c(N3CCOCC3)n2)cc1 | active: 15.8 µM | – |
| CN(C)c1ccc(N=Nc2ccccc2C(=O)OCC(=O)NCC2CCCCC2)cc1 | active: 1.78 µM | – |
| O=C(/C=C/Nc1ccc(F)cc1Br)c1ccccc1 | inconclusive: 3.16 µM [inhibitor, full curve] | – |
| Cc1cc(N2CCN(c3ccccc3)CC2)nc(N2CCOCC2)n1 | inactive | – |
| COc1cccc(CNc2cccc3cccnc23)c1O | active: 28.2 µM | – |
| Cc1cc(=O)c2c(O)c3c(O)cc(O)c4c5c(O)cc(O)c6c(O)c7c(=O)cc(C)c8c1c2c(c34)c(c65)c78 | active: 14.1 µM | – |
| O=C1OC(/C(=C\Nc2cc(Cl)ccc2O)[N+](=O)[O-])c2ccccc21 (stereo unspecified) | inconclusive: 20 µM [inhibitor, partial curve] | – |
| COC(=O)c1ccc(NC(=O)CSc2nc(=O)n(Cc3ccco3)c3c2CCC3)cc1 | inactive | – |
| O=C(CCc1c[nH]c2ccccc12)N/N=C/c1ccc2c(c1)OCO2 | inconclusive: 15.8 µM [inhibitor, partial curve] | – |
| c1ccc(CN2CCN(c3ncnc4c3[nH]c3ccccc34)CC2)cc1 | inconclusive: 39.8 µM [inhibitor, single point] | – |
| CCOc1ccc(CCNC(=O)c2ccc3c(c2)c(C)c(C)n3C)cc1 | inconclusive: 7.94 µM [inhibitor, partial curve] | – |
| CCc1ccc(OCC(=O)NC(=S)Nc2cccc(CO)c2)c(Br)c1 | inconclusive: 0.501 µM [inhibitor, full curve] | – |
| COc1ccc(C(CC(=O)Nc2ccc(F)c(Cl)c2)N2Cc3ccccc3C2=O)cc1OC (stereo unspecified) | inactive | – |
| O=c1nc(/C=C/c2cc([N+](=O)[O-])ccc2Cl)cc(C(F)(F)F)[nH]1 | inconclusive: 3.16 µM [inhibitor, partial curve] | – |
| CCOc1ccc(-c2nc(CSCC(=O)NC3CCCc4ccccc43)c(C)o2)cc1 (stereo unspecified) | inconclusive: 17.8 µM [inhibitor, partial curve] | – |
| Cc1ccc(CNC(=O)CC2Oc3ccccc3NC2=O)cc1 (stereo unspecified) | inactive | – |

| Compound | Potency | activity, negative = inhibition |
| --- | --- | --- |
| CCCCCCN(CCCCCC)C(=O)Cc1c(-c2ccc(F)cc2)[nH]c2ccccc12 | inconclusive: 39.8 µM [inhibitor, single point] | – |
| O=C(CSc1nc2ncc(Cl)cc2[nH]1)c1c[nH]c2ccccc12 | inconclusive: 10 µM [inhibitor, partial curve, poor fit] | – |
| CCOc1ccccc1OCCNC1CCCC1 | inactive | – |
| Cc1c(NC(=O)c2ccc3c(c2)OCO3)cccc1-c1nc2ccccc2o1 | inconclusive: 2.51 µM [inhibitor, full curve] | – |
| O=C1CCN(S(=O)(=O)c2ccccc2)N1 | inconclusive: 31.6 µM [inhibitor, partial curve, poor fit] | – |
| CCn1c(SCc2ccccc2)nnc1-c1nonc1NC(C)=O | inactive | – |
| N#CC1=C(N)Oc2cc(O)ccc2C1c1ccncc1 (stereo unspecified) | inconclusive: 39.8 µM [inhibitor, single point] | – |
| CC(=O)Cc1c(C(=O)O)c(C)nn1-c1ccccc1 | inactive | – |
| CC(=O)C1=C(OC(=O)C(C)C)c2ccccc2S(=O)(=O)N1Cc1ccccc1 | inconclusive: 28.2 µM [inhibitor, single point] | – |
| CN(C)C(=O)/C(C#N)=C\c1cc(Br)c(Sc2ccc(Cl)cc2)o1 | inconclusive: 14.1 µM [inhibitor, partial curve] | – |
| CCOc1ccccc1C1CC(=O)NC2=C1C(=O)CC(C)(C)C2 (stereo unspecified) | inactive | – |
| Cc1nc2ccccc2c(=O)n1NC(=O)c1c(O)c2c(n(CC(C)C)c1=O)CCCC2 | inconclusive: 1.78 µM [inhibitor, full curve] | – |
| COc1cccc2sc(Nc3nc(-c4ccccn4)cs3)nc12 | inactive | – |
| Cc1ccc(N=C2NC(=O)/C(=C\c3ccc(C)s3)S2)cc1 | inconclusive: 3.16 µM [inhibitor, partial curve] | – |
| CN=C1C=C/C(=N/N=c2\ccn(O)cc2C)C=C1C | active: 6.31 µM | – |
| COC(=O)c1ccc(COc2ccc(/C=C(\C#N)c3nc4ccccc4[nH]3)cc2OC)o1 | inconclusive: 1.41 µM [inhibitor, full curve] | – |
| CC(C)=CCCC(C)NC(=O)NC1CCCCC1 (stereo unspecified) | inactive | – |
| Cc1ccc(NC(=O)Cn2nc(C)c([N+](=O)[O-])c2C)cc1C | inactive | – |
| Cc1nc(N)sc1-c1csc(Nc2ncccn2)n1 | active: 3.98 µM | – |
| CC(C)c1ccc(NS(=O)(=O)c2ccc3[nH]cc(C(=O)NC4CCCC4)c(=O)c3c2)cc1 | inactive | – |
| COC(=O)c1c(NC(=O)c2ccc(C)cc2)sc(Cc2ccccc2)c1C | inconclusive: 5.01 µM [inhibitor, partial curve] | – |
| Cc1cc(C)cc(N=Cc2[nH]c3ccc(Br)c(Cl)c3c2O)c1 | inconclusive: 12.6 µM [inhibitor, partial curve] | – |
| N#C/C(=C(/O)C(Cl)c1ccccc1)c1nc2ccccc2s1 (stereo unspecified) | inconclusive: 11.2 µM [inhibitor, partial curve, poor fit] | – |
